# According to the antibiotic and cytotoxicity screens of Wong et al. (2023):
# This is one part of the list.
# Tested on: HepG2
# Assay: cytotoxicity call (relative viability < 0.9)
# Conditions: 10 µM
row,SMILES,cytotoxicity call
1,O=C1O[C@@H](c2ccccc2)[C@@H](c2ccccc2)N2[C@@H](c3ccc(O)cc3)[C@]3(C(=O)Nc4ccccc43)[C@@H](C(=O)NC[C@H](O)c3ccccc3)[C@H]12,inactive
2,CCn1c(-c2nonc2N)nc2cncc(C(=O)N3CC[C@H](N)C3)c21,inactive
3,O=C(C[C@@H]1C=C[C@@H](NS(=O)(=O)c2ccc(F)cc2)[C@H](CO)O1)NCc1ccc(Cl)c(Cl)c1,inactive
4,CO[C@H]1CN(C)C(=O)c2ccc(NC(=O)Nc3cccc(Cl)c3)cc2OC[C@@H](C)N(C(=O)Nc2c(C)noc2C)C[C@@H]1C,inactive
5,C[C@H]1CCCCO[C@@H](CN(C)S(=O)(=O)c2cccs2)[C@@H](C)CN([C@@H](C)CO)C(=O)c2cc(NC(=O)Nc3ccc(C(F)(F)F)cc3)ccc2O1,inactive
6,NC(=O)NCC#Cc1ccc2c(c1)[C@]1(C(=O)N2)[C@H](C(=O)N2CCCCCCC2)[C@H]2C(=O)O[C@H](c3ccccc3)[C@H](c3ccccc3)N2[C@@H]1c1ccc(O)cc1,inactive
7,C[C@@H]1CN([C@H](C)CO)S(=O)(=O)c2ccc(C#Cc3ccccn3)cc2O[C@H]1CN(C)Cc1ccccc1,inactive
8,COCC(=O)N(C)C[C@@H]1Oc2cc(C#CCC3CCCC3)ccc2S(=O)(=O)N([C@@H](C)CO)C[C@@H]1C,inactive
9,C[C@@H]1CN([C@@H](C)CO)C(=O)c2cccc(NC(=O)c3cnccn3)c2O[C@@H]1CN(C)S(=O)(=O)c1ccc(F)cc1,inactive
10,C[C@H]1CN([C@@H](C)CO)C(=O)c2cc(NS(=O)(=O)c3cn(C)cn3)ccc2O[C@@H]1CN(C)Cc1ccc2c(c1)OCO2,inactive
